This assay deals with influenza virus strains.

`C=CC(=O)N1CCC(CNc2ncnc(N)c2-c2ccc(Oc3ccccc3)cc2)CC1` [evobrutinib, 1-[4-({[6-amino-5-(4-phenoxyphenyl)pyrimidin-4-yl]amino}methyl)piperidin-1-yl]prop-2-en-1-one] returned a seroconversion rate (evobrutinib [total] group (75 mg QD or 50 mg BID), SLE patients, influenza vaccine) of 53.1%. This molecule also displayed a seroprotection rate post-vaccination (evobrutinib [total] group, post-vaccination) of 81.3%. Moreover, the seroprotection rate pre-vaccination (evobrutinib [total] group, pre-vaccination) came to 56.3%. The “difference in seroconversion rate versus placebo” value (evobrutinib [total] minus placebo, in favor of evobrutinib) is reported as 5.3%. For the same molecule, the “overall humoral immune response to the influenza vaccine compared with placebo” value (phase II trial, SLE patients) is reported as “comparable”. Besides, for the setting “placebo and evobrutinib groups”, the “geometric mean ratios of post- vs pre-vaccination HI titer compared with placebo” value was “generally comparable and similar”.

The values above are taken from patent US20260000669A1, “TREATMENT REGIMEN FOR AUTOIMMUNE DISEASES AND INFLAMMATORY DISEASES” (Merck Patent GmbH, priority 2022, published 2026).
